Assay results taken from a collection of fitness landscapes (doi:10.1016/j.celrep.2020.107928).
The full ranking holds about 81,000 sequences; the median of “one-hybrid fitness for binding NBS DNA” is about -0.1, and the highest 2% start at about 0.36. The list shows a part of the results.

B1: Caulobacter ParB omega fusion; a variant is named by its letters at X, in order, B8GW30 (parent)
chain: MESVVVGEPGMSEGRRGLGRGLSALLGEVDAAPAQAPGEQLGGSREAPIEILQRNPDQPRRTFREEDLEDLSNSIREKGVLQPILVRPSPDTAGEYQIVAGERAWRAAQRAGLKTVPIMVRELDDLAVLEIGIIENVQRADLNVLEEALSYKVLMEKFERTQENIAQTIGKSXSHVANXMRLLXLPDEVQSYLVSGELTAXHARAIAAAADPVALAKQIIEGGLSVRETEALARKAPNLSAGKSKGGRPPRVKDTDTQALESDLSSVLGLDVSIDHRGSTGTLTITYATLEQLDDLCNRLTRGI

Variants of: B1
Assay: one-hybrid fitness for binding NBS DNA (the Noc-binding site; scaled: cognate 1, non-cognate 0); higher = stronger binding
Conditions: with NBS DNA site
Summary of the method: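 Bacterial one-hybrid selection in E. coli USO rpoZ- hisB- pyrF- with a HIS3 reporter carrying the site 19 bp from the promoter, screening Caulobacter ParB libraries with four specificity codons randomised (NNS). Cells grew 48 hours at 37°C on M9-minus-histidine plus 0.1 mM IPTG and 5 mM 3-AT. Plasmids before and after selection were Illumina-sequenced, three replicate libraries pooled, and variants under 10 reads dropped. Fitness is the log change in variant-to-wild-type read ratio, rescaled to cognate 1, non-cognate 0.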

Point of comparison: QYKQ, “one-hybrid fitness for binding NBS DNA” value 0.394. Against it:
- PEQG — lower, ≤ 0.2
- TRSD — lower, ≤ 0.2
- KPLS — lower, ≤ 0.2
- RGSY — lower, ≤ 0.2
- YCKC — lower, ≤ 0.2
- MRWG — lower, ≤ 0.2
- TYWM — lower, ≤ 0.2
- RETR — lower, ≤ 0.2
- DCLK — lower, ≤ 0.2
- RPWL — lower, ≤ 0.2
- DRVL — lower, ≤ 0.2
- LRNI — lower, ≤ 0.2
- GTPE — lower, ≤ 0.2
- SLTE — lower, ≤ 0.2
- RTWW — lower, ≤ 0.2
- QYRQ — higher, 0.435
- FGMV — lower, ≤ 0.2
- TEPV — lower, ≤ 0.2
- QGGR — lower, ≤ 0.2
- PCRH — lower, ≤ 0.2
- PWTN — lower, ≤ 0.2
- TTLA — lower, ≤ 0.2
- QPIM — lower, ≤ 0.2
- NTCG — lower, ≤ 0.2
- SDYR — lower, ≤ 0.2
- MLKH — lower, ≤ 0.2
- PVNH — lower, ≤ 0.2
- QVRQ — lower, 0.203
- PHTI — lower, ≤ 0.2
- CMWL — lower, ≤ 0.2
- LWHL — lower, ≤ 0.2
- QSNL — lower, ≤ 0.2
- MWHC — lower, ≤ 0.2
- PARV — lower, ≤ 0.2
- QNTM — lower, ≤ 0.2
- KCRR — higher, 0.46
- TGHI — lower, ≤ 0.2
- GGGR — lower, ≤ 0.2
- VQPG — lower, ≤ 0.2
- FERC — lower, ≤ 0.2
- FRAQ — lower, ≤ 0.2
- SPAL — lower, ≤ 0.2
- LWLS — lower, ≤ 0.2
- HLVM — lower, ≤ 0.2
- DDNG — lower, ≤ 0.2
- GCMQ — lower, ≤ 0.2
- FPDG — lower, ≤ 0.2
- QGSH — lower, ≤ 0.2
- RGRL — lower, ≤ 0.2
- LMPM — lower, ≤ 0.2
- TAYW — lower, ≤ 0.2
- MAFV — lower, ≤ 0.2
- GYCR — lower, ≤ 0.2
- KPHF — lower, ≤ 0.2
- NDWV — lower, ≤ 0.2
- WIHC — lower, ≤ 0.2
- RIYT — lower, 0.34
- KLDT — lower, ≤ 0.2
- IHGD — lower, ≤ 0.2
- MTHT — lower, ≤ 0.2
- QSEA — lower, ≤ 0.2
- IDTM — lower, ≤ 0.2
- SVRI — lower, ≤ 0.2
- LSAW — lower, ≤ 0.2
- RGRK — lower, ≤ 0.2
- RNCN — lower, ≤ 0.2
- RITS — lower, 0.384
- TLDF — lower, ≤ 0.2
- QMSG — lower, ≤ 0.2
- VNAC — lower, ≤ 0.2
- RDWM — lower, ≤ 0.2
- DALT — lower, ≤ 0.2
- ALQE — lower, ≤ 0.2
- QLAL — lower, ≤ 0.2
- VGSL — lower, ≤ 0.2
- DDRN — lower, ≤ 0.2
